# Source: PubChem BioAssay AID686979 (National Center for Advancing Translational Sciences (NCATS), 2013)
# About 50,000 (12%) of roughly 420,000 compounds were called active. Inconclusive results, whose numbers are uncertain, are shown with a selection of clear calls. Calls come from the whole dose curve; as a rule, active = well fitted inhibition curve with a large enough effect; inconclusive = small, poorly fitted or top-dose-only effect; inactive = flat fitted curve, though single readings scatter. No potency is given beside an inconclusive call; the fits are too rough.
# Test: qHTS for Inhibitors of human tyrosyl-DNA phosphodiesterase 1 (TDP1): qHTS in cells in presence of CPT; note: nearly all actives have a fitted effect of over 55% in size
# Conditions: chicken DT40 Tdp1-/-;hTDP1 cells + 20 nM CPT, ATP luminescence, 48 h; activity change, negative = growth inhibition: at 46.2 µM (top of the series)
# Outline: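 Chicken DT40 Tdp1-/- cells complemented with human TDP1, 400 cells/well, exposed to compounds plus 20 nM camptothecin for at least 48 h at 37 C; viability read as ATP content by CellTiter-Glo luminescence.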
# % is set by controls: 0 for no effect and ±100 for the full control effect; potency is the fitted concentration of half-maximal effect; tags give direction and shape of the fitted curve.
SMILES,Potency,"activity change, negative = growth inhibition"
O=C(O)c1ccc2c(c1)N(Cc1ccc(F)cc1)C(=O)c1ccccc1S2=O (stereo unspecified),active: 11.6 µM,
COc1ccc(Nc2nc(C)cc(C)c2C(N)=O)cc1OC,,inactive: -1.09%
c1ccc2c(c1)nc(Nc1ccc(N3CCCCC3)cc1)c1nncn12,"inconclusive [inhibitor, single point]",
COC(=O)Cc1csc(Nc2ccccc2)n1,,inactive: 0.198%
COc1ccccc1CNc1ncnc2c1nc1n2CCCC1,"inconclusive [inhibitor, full curve]",
Cc1ccc(SC(CC(=O)c2ccc(F)cc2)C(=O)O)cc1 (stereo unspecified),"inconclusive [inhibitor, single point]",
CCCCN(C)C(=O)C1CCC(Cn2c(=O)[nH]c3ccsc3c2=O)CC1 (stereo unspecified),"inconclusive [inhibitor, partial curve]",
O=C(Cn1c(=O)c2cccn2c2ccc(F)cc21)Nc1cccc(F)c1,,inactive: -6.85%
O=C(NCCc1ccccc1)c1ccc2c(c1)CCN2S(=O)(=O)c1ccc(Cl)cc1,"inconclusive [inhibitor, partial curve]",
COc1cc(C(=O)NCCNc2nc3cc(C)ccc3cc2C#N)cc(OC)c1OC,"inconclusive [inhibitor, single point]",
CCN1C(=O)/C(=C/N(C)c2ccccc2)OC1=S,"inconclusive [inhibitor, partial curve]",
Cc1ccc2c(CC(=O)Nc3ccc(S(=O)(=O)N4CCCC(C)C4)cc3)coc2c1 (stereo unspecified),"inconclusive [inhibitor, single point]",
S=C(NCc1ccccc1)NNc1nc2ccccc2[nH]1,"inconclusive [inhibitor, single point]",
O=S(=O)(N=C1C=CC(=NS(=O)(=O)c2ccccc2)c2ccccc21)c1ccccc1,active: 7.31 µM,
COc1cc(NS(=O)(=O)c2ccc3[nH]c(=O)oc3c2)cc(OC)c1,,inactive: -10%
Cc1ccc(S(=O)(=O)Oc2ccccc2/C=N/NC(=O)c2c(Cl)cnn2C)cc1,"inconclusive [inhibitor, single point]",
COc1ccccc1NC(=O)Cc1csc(NC(=O)c2ccccc2)n1,"inconclusive [inhibitor, single point]",
CNC(=S)N1CCC(Cc2ccccc2)CC1,,inactive: -1.4%
CCCCCCN(C(=O)CCCN1C(=O)NC(c2ccc([N+](=O)[O-])cc2)C(C(=O)OCc2ccccc2)=C1C)C(C)C(=O)NCCCC (stereo unspecified),active: 11.6 µM,
C/C(=N/NS(=O)(=O)c1ccc(CC(C)C)cc1)c1ccncc1,"inconclusive [inhibitor, single point]",
O=C(Cn1ccc(NC(=O)OCc2ccccc2)nc1=O)NCCc1c[nH]c2ccccc12,"inconclusive [inhibitor, single point]",
CN(C)c1ccc(-c2ccnc3c2CC(C)(C(=O)NCc2cccs2)O3)cc1 (stereo unspecified),active: 16.4 µM,
OC(c1ccccc1)c1nc2ccccc2n1Cc1c(F)cccc1Cl (stereo unspecified),"inconclusive [inhibitor, single point]",
Cc1cnc(C(=O)OCc2c(C)cc(C(C)(C)C)cc2C)cn1,,inactive: -21.7%

SMILES,Potency,"activity change, negative = growth inhibition"
Cc1ccc(CS(=O)(=O)Cc2ccc(C(=O)NC3CCCCCC3)o2)cc1,"inconclusive [inhibitor, partial curve]",
CCCCCCNC(=O)N1C/C=C\C(c2ccc(OC)cc2)N(Cc2ccc(F)cc2)C(=O)C1 (stereo unspecified),"inconclusive [inhibitor, single point]",
Cc1cccc(NC(=S)N(CCN(C)C)Cc2cc3cccc(C)c3[nH]c2=O)c1,"inconclusive [inhibitor, single point]",
CCOc1ccc(-c2cc3c(=O)n(CC(=O)NCc4ccccc4)ccn3n2)cc1,"inconclusive [inhibitor, single point]",
COc1ccc(C(=O)OCc2ccccc2F)cc1S(=O)(=O)N1CCCC1,"inconclusive [inhibitor, single point]",
Cc1ccc(SCC(=O)c2c(C)nc3ccccn23)cc1,active: 20.6 µM,
OC(c1ccc(Cl)c(Cl)c1)c1ncc(-c2cccc(F)c2)[nH]1 (stereo unspecified),"inconclusive [inhibitor, single point]",
CCOC(=O)c1sc(Nc2nc(C)cc(OC)n2)nc1C,"inconclusive [inhibitor, single point]",
O=C(Nc1cccc(Cl)c1Cl)c1ccccc1NC(=O)C1CC=CCC1C(=O)O (stereo unspecified),"inconclusive [inhibitor, single point]",
CN(C)c1cccc(Nc2ccc(-c3ccc(OC(F)(F)F)cc3)cn2)c1,"inconclusive [inhibitor, partial curve]",
Cc1ccc(O)c(CC(C)C)n1,,inactive: -15.1%
Cc1c(C(=O)NCc2ccccc2C(F)(F)F)sc(=O)n1Cc1ccc(F)cc1,active: 20.6 µM,
COc1ccc(C(=O)NCc2nnc(SCC(=O)NO)n2Cc2ccccc2)cc1,active: 18.4 µM,
COCCNC(=O)CSc1nc(-c2ccc(C)cc2)[nH]c1-c1ccc(OC)cc1,"inconclusive [inhibitor, single point]",
O=C(CSc1nc(=O)n(Cc2ccccn2)c2c1CCC2)Nc1cccc(Cl)c1,"inconclusive [inhibitor, single point]",
COc1ccc(C(=O)c2sc3nc(-c4ccccc4)ccc3c2N)cc1,,inactive: -53.7%
CCc1cc(=O)oc2c(C)c(OCC(=O)NCCN3CCOCC3)ccc12,active: 23.1 µM,
COC(=O)Nc1ccc(S(=O)(=O)N2CCCC(C(=O)N3CC(C)OC(C)C3)C2)cc1 (stereo unspecified),"inconclusive [inhibitor, single point]",
COC(=O)[C@]1(Cc2ccccc2)N[C@H](CN(C)S(=O)(=O)c2ccc(-c3ccccc3)cc2)[C@@H]2C(=O)N(C)C(=O)[C@@H]21,active: 25.9 µM,
COc1cccc(NC(=O)CSc2ncnc3c2cnn3Cc2ccccc2)c1,"inconclusive [inhibitor, single point]",
O=C(Nc1ccc(Cl)cc1F)c1cc(S(=O)(=O)NC2CCCCCC2)ccc1F,active: 20.6 µM,
CC(C)CCNC(=O)C1CCC(CNS(=O)(=O)c2cccc3nsnc23)CC1 (stereo unspecified),"inconclusive [inhibitor, single point]",
CCn1c(=NC(=O)COc2ccccc2)sc2cccc(F)c21,"inconclusive [inhibitor, single point]",
CCc1ccc(NC(=O)CN2C(C(=O)OC)=C(c3ccccc3)c3ccccc3S2(=O)=O)cc1,,inactive: 0.187%

SMILES,Potency,"activity change, negative = growth inhibition"
O=C(Nc1cccc(Nc2ccccc2)c1)c1cnn2c1NC(=C1CC1)C=C2C(F)F,active: 4.47 µM,
COc1ccccc1CNc1ncnc2ccc(-c3ccc4c(c3)OCO4)cc12,"inconclusive [inhibitor, single point]",
COC(=O)Nc1ccc(S(=O)(=O)NNC(=O)c2c(O)c3ccccc3n(C)c2=O)cc1,,inconclusive: -35.2% [inhibitor]
Cc1cc(N2CCN(c3ccc(F)cc3)CC2)n2cnnc2n1,"inconclusive [inhibitor, single point]",
COc1ccc(NC(=O)Cn2ccn(-c3ccc(C)c(C)c3)c(=O)c2=O)cc1Cl,,inactive: -9.94%
CCN(CC)S(=O)(=O)c1ccc(NC(=O)CSc2cccc[n+]2[O-])cc1,,inactive: -29%
COc1ccc2nc(NC(=O)c3ccco3)sc2c1,"inconclusive [inhibitor, single point]",
Cc1cccc(NC(=O)c2oc3ccccc3c2NC(=O)Cc2coc3cc(C)cc(C)c23)c1,"inconclusive [inhibitor, single point]",
Cc1cc(/C=C(\C#N)C(=O)Nc2ccc(F)cc2)c(C)n1-c1ccc(N2CCOCC2)c([N+](=O)[O-])c1,active: 8.2 µM,
Cc1ccc(C(=O)c2cn(Cc3ccccc3)c3ccccc3c2=O)cc1,active: 23.1 µM,
COc1ccc2c(Cl)c(C(=O)N/N=C/c3ccc4c(c3)OCO4)sc2c1,"inconclusive [inhibitor, single point]",
O=C1NC[C@H](CCCCN2C[C@H](Cc3ccc(O)cc3)N(Cc3ccccc3)C(=O)C2=O)N(CCc2ccc(O)cc2)C1=O,,inactive: -6.72%
CCCCC(O)(CCCC)C(=O)NN(C(=O)OCC)c1ccccc1,"inconclusive [inhibitor, single point]",
O=C(c1ccco1)N1CCN(C(=O)c2ccc(CS(=O)c3cccc(Cl)c3)o2)CC1 (stereo unspecified),,inactive: -15.7%
CCOC(=O)c1ccccc1NS(=O)(=O)c1ccc(OCC)cc1,active: 7.94 µM,
COc1cc(OC)cc(OC(=O)c2ccc3c(=O)n4c(nc3c2)CCC4)c1,,inactive: -3.14%
CCOc1ccc(S(=O)(=O)n2nc(C)cc2C)c2ccccc12,active: 23.1 µM,
Cc1cc(NS(=O)(=O)c2ccc(NC(=O)CSc3nnc(-c4ccco4)n3Cc3ccco3)cc2)nc(C)n1,,inactive: -0.774%
Cn1nc(Oc2nc(N3CCOCC3)nc(N3CCOCC3)n2)ccc1=O,,inactive: -20.8%
CC(C)OC(=O)N(C)C[C@@H]1OCc2ccccc2-c2c(n(C)c3ccccc23)C(=O)N([C@@H](C)CO)C[C@H]1C,,inactive: -2.28%
c1cc2c(cn1)cnc1cscc12,"inconclusive [inhibitor, single point]",
CCN(CCC(=O)O)c1ccc(/C=C/c2ccnc3ccccc23)cc1,,inactive: 2.26%
COC(=O)N[C@@H]1C[C@H]2[C@@H]3CC[C@H]4C[C@@H](OC)CC[C@]4(C)[C@H]3CC[C@@]12C,active: 13 µM,
